# Test results taken from PubChem BioAssay AID686978 (National Center for Advancing Translational Sciences (NCATS), 2013).
# “And” between values parts separate entries of the source, which are not always exact repeats. Equal entries are not always repeated. Among all 420,000 compounds or so, about 64,000 (15%) were called active. Inconclusive means that the source gave no clear call. Such entries were picked first, then a sample of the others. The call rests on the fitted dose curve; in most records, active means well fitted inhibition curve with a large enough effect; inconclusive means small, poorly fitted or top-dose-only effect; inactive means flat fitted curve, though single readings scatter. Where the call is inconclusive, the potency comes from a doubtful curve fit.
# Experiment: qHTS for Inhibitors of human tyrosyl-DNA phosphodiesterase 1 (TDP1): qHTS in cells in absence of CPT; further: nearly all actives have a fitted effect of over 55% in size
# Details: DT40 Tdp1-/- hTDP1 cells, no CPT, ATP luminescence, 48 h; activity change, negative = growth inhibition: at 46.2 µM (top of the series)
# Summary of the method: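 Growth of hTDP1-complemented DT40 Tdp1-knockout cells is measured by ATP luminescence after at least 48 hr compound exposure at 37 °C, with DMSO substituting for the 20 nM CPT used in the parallel screen.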
# On the % scale 0 is the no-effect control and ±100 the full control effect; potency means the concentration at half of the fitted maximal effect; tags describe the fitted curve by direction and shape.
Structure (SMILES),Potency,"activity change, negative = growth inhibition"
Cc1ccc(S(=O)(=O)NC(C)(C)CN2CCC(Cc3ccccc3)CC2)cc1,active: 18.4 µM,
Cc1cc(=O)oc(C)c1C(=O)NCc1c(F)cc(F)cc1F,,inactive: -3.12%
Cc1cccc(NC(=O)CN(C)S(=O)(=O)c2cccc3cccnc23)c1C,"inconclusive: 23.1 µM [inhibitor, partial curve, poor fit]",
CC(/C=N/NC(=O)CN1CCN(Cc2ccc(Cl)cc2)CC1)=C\c1ccco1,"inconclusive: 8.2 µM [inhibitor, partial curve]",
Cc1ccc(C(=O)Nc2ccccc2-c2ccccc2)cc1S(=O)(=O)Nc1ccccc1,active: 14.6 µM,
NC(=O)Nc1ccc(C(=O)N2CCN(S(=O)(=O)Cc3ccccc3)CC2)cc1,"inconclusive: 6.51 µM [inhibitor, single point]",
CCc1ccc(Oc2cc(Cl)nc(N)n2)cc1,"inconclusive: 4.11 µM [inhibitor, full curve]",
O=C(Nc1cc(Cl)ccc1Oc1ccccc1)c1ccc(F)cc1,"inconclusive: 23.1 µM [inhibitor, single point]",
COc1ccc(OC)c(S(=O)(=O)Nc2cccc(-c3ccc(N4CCCCCC4)nn3)c2)c1,"inconclusive: 20.6 µM [inhibitor, single point] and inconclusive: 29.1 µM [inhibitor, single point]",
Cc1ccc(CNC(=O)c2cn(C)c3ccc(S(=O)(=O)N4CCOCC4)cc3c2=O)cc1,"inconclusive: 3.26 µM [inhibitor, partial curve]",
CC(C)n1c(=O)[nH]c2cc(C(=O)Nc3ccccc3)ccc21,,inactive: -17%
CCN1CCN(Cc2c(C)[nH]c3ccc(OC)cc3c2=O)CC1,"inconclusive: 4.61 µM [inhibitor, single point]",
CC(C)N(C(=O)CSc1ccc(S(=O)(=O)N2CCCCC2)cn1)C(C)C,,inactive: -26.9%
Cc1cccc(-c2nc(=S)c3c(o2)CCCC3)c1,"inconclusive: 29.1 µM [inhibitor, single point]",
CC(=O)Nc1ccc(CNc2nc(NCCN(C)C)nc3cc(-c4ccccc4)sc23)cc1,"inconclusive: 23.1 µM [inhibitor, single point]",
COc1ccc(NC(=O)Nc2cccnc2)cc1,"inconclusive: 16.4 µM [inhibitor, single point]",
Cc1ccc(S(=O)(=O)N2CCC(=O)N2)cc1,"inconclusive: 29.1 µM [inhibitor, single point]",
Cc1onc(-c2ccccc2Cl)c1C(=O)Nc1ncn[nH]1,,inactive: -5.55%
COC(=O)c1cc2c([nH]c1=O)CCCC2=O,,inactive: -4.81%
Cc1cc(NC(=O)CSc2nc3c(c(=O)n2-c2ccccc2)SC(C)C3)no1 (stereo unspecified),active: 20.6 µM,
CCCCCCCCCCCCCCCC(=O)N[C@@H](COP(=O)(O)O)C(=O)O,,inactive: -4.64% [at 4.12 µM]
CC(OC(=O)C1=Cc2ccccc2OC1)C(=O)NC(C)(C)C (stereo unspecified),"inconclusive: 29.1 µM [inhibitor, single point]",
O=C(CCCN1C(=O)/C(=C\c2cccs2)SC1=S)Nc1ccc(O)cc1,"inconclusive: 29.1 µM [inhibitor, single point]",
COc1cc(NC(=O)c2nn(-c3ccc(F)cc3)c(=O)n(C)c2=O)cc(OC)c1OC,active: 10.3 µM,

Structure (SMILES),Potency,"activity change, negative = growth inhibition"
O=C1CCC(C(=O)N2CCN(c3ccccc3Cl)CC2)CN1CC1CCCCC1 (stereo unspecified),"inconclusive: 20.6 µM [inhibitor, single point]",
CCN1CCN(c2cc(C)c3cc(NC(=S)N4CCN(c5ccc(F)cc5)CC4)ccc3n2)CC1,"inconclusive: 23.1 µM [inhibitor, single point]",
CC1=CC2=NC(=O)CC(C)(C(=O)N(CC(=O)NC3CCCC3)c3ccccc3F)N2C=C1 (stereo unspecified),,inactive: -25.4%
CC(C)CN=c1cc(-c2ccccc2)oc2ccc(Cl)cc12,"inconclusive: 18.4 µM [inhibitor, single point]",
CCCCNc1c(-c2ccc(SC(C)CC)cc2)nc2cnccn12 (stereo unspecified),active: 8.2 µM,
C/C(=N\NC(=S)NC(C)C)c1ccco1,"inconclusive: 23.1 µM [inhibitor, single point]",
O=C(c1ccc(F)cc1)N1CCC(C(=O)N2CCN(S(=O)(=O)c3ccccc3Br)CC2)CC1,"inconclusive: 29.1 µM [inhibitor, single point]",
COc1ccc(-n2c(C)cc(C(=O)CSc3nn4c(=O)c(C(C)(C)C)nnc4s3)c2C)cc1,"inconclusive: 18.4 µM [inhibitor, single point]",
COc1ccc(NC(=O)C2Cc3c(-c4ccccc4)ccnc3O2)cc1OC (stereo unspecified),active: 4.61 µM,
COc1cc2c(cc1OC)/C(=C/C(=O)c1cccc([N+](=O)[O-])c1)NCC2,"inconclusive: 29.1 µM [inhibitor, single point]",
CCCc1cc(N2CCOCC2)n2ncc(-c3ccccc3)c2n1,"inconclusive: 18.4 µM [inhibitor, single point]",
N#Cc1ccc(CN2CCN(C(=O)C3CC(=O)N(c4ccc5c(c4)OCCO5)C3)CC2)cc1 (stereo unspecified),"inconclusive: 0.651 µM [inhibitor, full curve, poor fit]",
CCOC(=O)c1sc(-c2ccc(Br)cc2)cc1N,"inconclusive: 18.4 µM [inhibitor, single point]",
Cc1c(NC(=O)c2ccc(S(=O)(=O)N3CCOCC3)cc2)c(=O)n(-c2ccccc2)n1C,,inactive: 4.39%
COc1ccc(NC(=O)C2CCN(C(=O)c3cccs3)CC2)c(OC)c1,"inconclusive: 20.6 µM [inhibitor, single point]",
O=C(CSc1nnc(NC(=O)C2CC(=O)N(c3ccc(F)cc3)C2)s1)NCC1CCCO1 (stereo unspecified),,inactive: 6.81%
Cc1ccccc1NC(=O)c1c(NC(=O)C(F)(F)F)sc2c1CCCCC2,active: 2.91 µM,
Cn1ncc(Cl)c1C(=O)NCc1cc(C(C)(C)C)n[nH]1,active: 18.4 µM,
Cc1cc(C)cc(N(CC(=O)NC2CCCCC2)C(=O)c2ccc(C)s2)c1,"inconclusive: 23.1 µM [inhibitor, single point]",
CC1Cc2ccccc2N1C(=O)Cn1c(=O)oc2cc(S(=O)(=O)N3CCCCC3)ccc21 (stereo unspecified),"inconclusive: 29.1 µM [inhibitor, single point]",
Cc1cccn2c(/C=N/OCc3ccc(F)cc3)c(-c3ccc(Cl)cc3)nc12,"inconclusive: 18.4 µM [inhibitor, single point]",
CCn1c2ccccc2c2cc(/C=N/NC(=O)c3ccc(O)cc3)ccc21,active: 25.9 µM,
N#Cc1nc(-c2cccs2)oc1NCc1ccco1,"inconclusive: 9.2 µM [inhibitor, partial curve]",
CC(C)C[C@H]1CNC(=S)N1CC1CCCN1C[C@H](CC(C)C)N1C[C@H](CC(C)C)N(CCc2ccccc2)C1=S (stereo partly specified),active: 5.8 µM,

Structure (SMILES),Potency,"activity change, negative = growth inhibition"
O=C(O)/C=C/C(=O)Nc1nc(-c2ccc3ccccc3c2)cs1,,inactive: -20.3%
O=C(COC(=O)c1ccc(S(=O)(=O)N2CCOCC2)cc1)NCc1cccs1,,inactive: -7.75%
O=C(NCCc1nc2ccccc2[nH]1)/C(=C/c1ccc2c(c1)OCO2)NC(=O)c1ccccc1Cl,"inconclusive: 29.1 µM [inhibitor, single point]",
O=C(COC(=O)C1CCC1)NCc1ccccc1,,inactive: -14%
CN1CCN(C(=O)c2ccc(Cn3cc(Cl)cn3)o2)CC1,,inactive: -15.6%
COc1ccc(-c2c3c(nc4sc(C(=O)Nc5cc(C)on5)c(N)c24)CCC3)cc1,"inconclusive: 29.1 µM [inhibitor, single point]",
CC1(C(=O)NS(=O)(=O)c2ccc(C#N)cc2)CCN1C(=O)Cc1cc(F)ccc1F (stereo unspecified),,inactive: 10.2%
COc1ccc(C(=O)NC2CC2)cc1OC1CCN(Cc2ccc(F)cc2Cl)CC1,active: 18.4 µM,
O=C(CSc1ccc(-c2cccc([N+](=O)[O-])c2)nn1)N1CCCCC1,"inconclusive: 29.1 µM [inhibitor, single point]",
COCOc1cc(O)c(C(=O)/C=C/c2ccccc2)c(OCOC)c1,active: 18.4 µM,
Oc1cccc(/C=N/c2c(-c3ccco3)nc3ccccn23)c1,"inconclusive: 11.6 µM [inhibitor, partial curve]",
CC1CCN(C(=O)CCc2ccc(S(=O)(=O)NC(C)(C)C)cc2)CC1,"inconclusive: 29.1 µM [inhibitor, single point]",
FC(F)(F)c1cnc(Sc2nc3nccc(-c4ccc(Cl)cc4)n3n2)c(Cl)c1,"inconclusive: 16.4 µM [inhibitor, single point]",
Cc1cccc(C(=O)OCC(=O)N(CC(C)C)c2c(N)n(Cc3ccccc3)c(=O)[nH]c2=O)c1C,"inconclusive: 25.9 µM [inhibitor, single point]",
COCCNC(=O)CSCc1cc(C)cc(C)c1,,inactive: 3.77%
Cc1ccc(C(=O)OCC(=O)NC(=O)c2ccccc2)o1,,inactive: -0.609%
COc1ccc(CN2C[C@@H](CO)O[C@@H](n3cnc4c(NCCN(C)C)ncnc43)C2)cc1,,inactive: -20.2%
CC(=O)c1ccc(N2CCN(S(=O)(=O)c3c(C(=O)N4CCCC4)c(C)n(C)c3C)CC2)cc1,,inactive: -19.7%
CCOc1ccc(C)cc1S(=O)(=O)NC1CCCCC1,"inconclusive: 29.1 µM [inhibitor, single point]",
CCCn1c(=O)c(C)cn2nc(N)nc12,,inactive: -0.511%
COC(=O)c1c(C)nn(-c2ccc(F)c(Cl)c2)c1-c1cc(C)on1,active: 5.17 µM,
CC(C)CC1Nc2ccc(C(=O)NCc3ccc4c(c3)OCO4)cc2NC1=O (stereo unspecified),"inconclusive: 29.1 µM [inhibitor, single point]",
COc1ccc(OC)c(S(=O)(=O)N2CCC3(CC2)OCCN3S(=O)(=O)c2ccccc2)c1,"inconclusive: 29.1 µM [inhibitor, single point]",
